We go through 58 molecules from ChEMBL document CHEMBL1201862, “PubChem BioAssay data set” (2004).

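Test compounds were applied to cells in 96-well plates for 48 hours at 5 doses. Abbreviation: GI50, concentration required for 50% inhibition of growth.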 Activity calls are given as the source filed them. Rule as the data show it: active = GI50 up to about 1.1 µM and inactive = higher.

The test system of the test is NCI-H322M. In words: growth of human tumour cells (NCI), 48 h.
Take `C=CCO/N=C/c1cc(/N=C(/S)c2ccoc2C)ccc1Cl`: the GI50 was inactive: 14.9 µM.

Regarding `CC1OC(OC2C(O)C(O)C(O)C(O)C2O)C(N)CC1NC(=N)C(=O)O` (stereo not drawn), the GI50 was inactive: > 100 µM.

Turning to `CC(C)(C)c1ccc(O)c(CN(Cc2c(O)ccc3ccccc23)C2CCCCC2)c1`, the GI50 was inactive: 18.2 µM.

Turning to `O=C(Cn1c(C(=O)c2ccccc2)nc2ccccc21)c1ccccc1`, the GI50 was inactive: > 100 µM.

Consider `O=C1C(CO)=C(CO)C(=O)c2c(O)ccc(O)c21`, for which the GI50 was inactive: 1.62 µM.

With `CC(C)c1nc2c(Cl)c3ncccc3cc2[nH]c1=O`, the GI50 is inactive: > 100 µM.

On to `O=C1OC(c2ccccc2Br)=N/C1=C/c1ccccc1`, for which the GI50 is inactive: > 100 µM.

On to `Clc1ccccc1-c1nc2cc(C34CC5CC(CC(C5)C3)C4)ccc2[nH]1`, for which the GI50 was inactive: 24.9 µM.

`CNC(=O)N(CCCCC(NC(C)=O)C(=O)NCc1ccccc1)Cc1ccccc1` (stereo not drawn): the GI50 is inactive: > 100 µM.

Regarding `Cn1c(N/N=C/c2ccc(Cl)cc2)nc(-c2ccc(Cl)cc2)c(C#N)c1=O`, the GI50 was inactive: 20.2 µM.

Regarding `O=C(CC(O)(C(F)(F)F)C(F)(F)F)c1cc(CC(=O)C(O)(C(F)(F)F)C(F)(F)F)cc(CC(=O)C(O)(C(F)(F)F)C(F)(F)F)c1`, the GI50 was inactive: 2.59 µM.

For `CC1=C(/C(C)=N/NC(=O)C(N)=O)Sc2ccccc2N1`, the GI50 is inactive: > 100 µM.

Regarding `O=C1Nc2cc(Cl)ccc2C(=O)N2CCC[C@@H]12`, the GI50 is inactive: > 100 µM.

`C=C1C(=O)O[C@@H]2/C=C(/C)[C@@H](OC(C)=O)C/C=C(\C)C(O)[C@@H](OC(=O)/C(C)=C\C)C12` (stereo partly drawn): the GI50 is inactive: 54.2 µM.

In the case of `Clc1sc(Cl)c2c1[C@H](Br)C[C@@H]2Cl`, the GI50 is inactive: > 100 µM.

Regarding `CCOC(=O)CC(=O)C(=O)NN=C1NCCCN1`, the GI50 is inactive: > 100 µM.

Regarding `CC1=CC[C@@]2(C)[C@@H]([C@@H]1C)[C@H]1CC[C@@H]3[C@@]4(C)CC[C@H](O)C(C)(C)[C@@H]4CC[C@@]3(C)[C@]1(C)C[C@@H]2O`, the GI50 is inactive: 5.2 µM.

Turning to `COCOC1/C=C/CCCCC2=C(C)C=C(C1)O2` (stereo not drawn), the GI50 is inactive: > 100 µM.

Take `Cc1nc2ccccc2nc1CC(=O)C(=O)Nc1ccc(Cl)cc1Cl`: the GI50 was inactive: > 100 µM.

Regarding `COc1ccc2c(c1)CC[C@@H]1C2CC[C@]2(C)C(=O)N(C)C(=O)CC12` (stereo partly drawn), the GI50 was inactive: > 100 µM.

As for `COC(=O)/C=C/c1cc(OC)c2c(c1)C(C(=O)OC)C(c1ccc(OC)c(OC)c1)O2` (stereo not drawn), the GI50 is inactive: 55.5 µM.

Consider `COC(=O)c1ccc2n[se]nc2c1`, for which the GI50 is inactive: > 100 µM.

For `COC(=O)c1ccc(/C=C/S(=O)(=O)c2ccccc2)cc1`, the GI50 is inactive: > 100 µM.

Consider `COc1cccc2cc(C)c(C(=O)c3ccccc3)nc12`, for which the GI50 is inactive: > 100 µM.

`Cc1cc(S(=O)(=O)Nc2nc(Nc3ccc(Cl)cc3)n[nH]2)c(S)cc1Cl`: the GI50 was inactive: > 100 µM.

Take `Cc1nnc2sc(Cl)nn12`: the GI50 was active: 0.434 µM.

In the case of `CCn1c2ccc(O)c(C(=O)OC)c2c2cc3ccccc3c(O)c21`, the GI50 is inactive: 15.5 µM.

For `C/C(CC(O)(C(F)(F)F)C(F)(F)F)=N\O`, the GI50 is inactive: > 10 µM.

`Cc1c2oc(=O)c(C#N)cc2c2ccccn12`: the GI50 is inactive: > 100 µM.

`CC1CC(C(=O)OC2OC(COC3OC(CO)C(OC4OC(C)C(O)C(O)C4O)C(O)C3O)C(O)C(O)C2O)C2CCC3(C)C(=CCC4(C)C3CCC3C(C)(CO)C(O)C(O)CC34C)C2C1C` (stereo not drawn): the GI50 was inactive: 31.2 µM.

Turning to `COc1ccc(C(=C2C(=O)OC(=O)C2=C(C)C)c2ccc(OC)cc2)cc1`, the GI50 is inactive: > 100 µM.

On to `CSC(SC)=C1C(=O)N(c2ccccc2)N=C1C`, for which the GI50 is inactive: 26.7 µM.

For `O=c1[nH]nc2c3n[nH]c(=O)n3c3ccccc3n12`, the GI50 was inactive: > 100 µM.

`CSC1(C)CC2C(CC1N1CCOCC1)C2(C)C` (stereo not drawn): the GI50 is inactive: > 100 µM.

Turning to `Cc1nn2c(=O)c([N+](=O)[O-])c(/C=C/c3ccco3)nc2s1`, the GI50 is inactive: 55.5 µM.

As to `COC(=O)C1=C(O)C(C(=O)OC)[C@@]2(O)[C@@H](C(=O)OC)[C@H](C)C[C@@H]1[C@@H]2C(=O)OC` (stereo partly drawn), the GI50 was inactive: 28.2 µM.

For `C/N=c1\sc2c(n1C)C(=O)c1ccccc1C2=O`, the GI50 is inactive: 2.1 µM.

Consider `OC1CCCN(C2(c3cccs3)CCCCC2)C1` (stereo not drawn), for which the GI50 was inactive: > 100 µM.

As to `CCCCCCCCCc1cc(=O)c2ccc(OCc3ccccc3)cc2o1`, the GI50 is inactive: > 100 µM.

Turning to `COc1ccc(C2=NOP(c3ccccc3)(c3ccccc3)(c3ccccc3)C2)cc1`, the GI50 is inactive: 22.8 µM.

As to `O=[N+]([O-])c1c(/C=N/c2ccccc2)oc(-c2ccc3c(c2)OCO3)c1-c1ccc2c(c1)OCO2`, the GI50 was inactive: > 100 µM.

Take `COC(OC)[C@@H]1OC[C@H](n2ccc(=O)[nH]c2=O)[C@H]1O`: the GI50 is inactive: > 100 µM.

Regarding `CC(=O)OCC1OC(N2C(=O)C(=O)c3ccccc32)C(OC(C)=O)C(OC(C)=O)C1OC(C)=O` (stereo not drawn), the GI50 is inactive: > 100 µM.

On to `CCOC(=O)c1cc(/C=C/C(C)=C/C(=O)OC)oc1-c1ccccc1`, for which the GI50 is inactive: > 100 µM.

As for `O=c1oc2ccccc2[n+]([O-])c1-c1ccccc1`, the GI50 was inactive: > 100 µM.

With `FC(F)(F)c1cccc(COCCN2CCN(Cc3cccc(C(F)(F)F)c3)CC2)c1`, the GI50 was inactive: 18.5 µM.

`O=c1c2cc(I)ccc2nc(SCc2n[nH]c(=S)o2)n1Cc1ccccc1`: the GI50 was inactive: 20.1 µM.

For `COC(=O)/C(=N\O)C(C(=O)C=C(C)C)C(=O)C(=O)Nc1ccccc1C` (stereo not drawn), the GI50 was inactive: > 100 µM.

Turning to `Cc1ccc(NC(=O)C(=O)C(C2C(C)CC(=O)C2CC(=O)O)[N+](=O)[O-])cc1` (stereo not drawn), the GI50 was inactive: > 100 µM.

Take `O=S(=O)(O)c1ccc(/N=N/c2ccc(/N=N/c3c(O)ccc4cc(S(=O)(=O)O)ccc34)cc2)cc1`: the GI50 is inactive: > 100 µM.

In the case of `O=C(O)Cn1ccc(=O)c2c([N+](=O)[O-])cccc21`, the GI50 is inactive: > 100 µM.

As for `O=S(O)CCCSSSCCCS(=O)O`, the GI50 is inactive: > 100 µM.

As for `COc1ccc(-n2nnc(C(N)=O)c2O)cc1`, the GI50 is inactive: > 100 µM.

Take `N#C[BH2-][n+]1ccc(C(=O)NNC(c2ccccc2)C(F)(F)F)cc1` (stereo not drawn): the GI50 was inactive: > 100 µM.

For the molecule `CC[C@H](C)[C@H]1NC(=O)[C@@H](NC(=O)[C@@H](CC(C)C)N(C)CC2CCCN2C(=O)C(C)=O)[C@@H](C)OC(=O)[C@H](Cc2ccc(OC)cc2)N(C)C(=O)C2CCCN2C(=O)[C@H](CC(C)C)NC(=O)[C@@H](C)C(=O)[C@H](C(C)C)OC(=O)C[C@@H]1O` (stereo partly drawn), the GI50 was active: 0.00405 µM.

As to `COC(=O)CCC(=O)CC1CC(=O)C2CCCN12` (stereo not drawn), the GI50 was inactive: > 100 µM.

For the molecule `Cc1cn(C2CC(SCCO)C(CO)O2)c(=O)[nH]c1=O` (stereo not drawn), the GI50 was inactive: > 100 µM.

For `COC(=O)CSc1cc(Cl)c(C)cc1S(=O)(=O)Nc1n[nH]c(N)n1`, the GI50 was inactive: > 10 µM.
